Consider 56 variants from the RNAGym collection of RNA variant scans (doi:10.7554/elife.90254).

The labels stand for the following.
B1: LINE1-mini (parent)
chain: GGCAGAGCUCAACACAGCGUGGCAAAGUGGCUGUGGCUAGACUGCC

Read counts are not given, so values of variants with three or more changes are uncertain.

This data set covers variants of B1. In words: self-cleavage, relative activity (ratio to wild type); higher = more cleavage; in vitro, sequencing; the parent is a self-cleaving ribozyme.
Turning to GGCAGACCUCAACACAGCUUGGCAAAGUGGCUGUGUCUAGACUGCC, the self-cleavage was 0.03.

In the case of GGCAGACCACAACACAGCAUGGCAAAGUGGCUGUGGCUAGACUGCC, the self-cleavage was found to be 0.09. For GGCAGACCUCAACACAGCGUGGCAAAGUGGCUGUGCUUAGACGGCU the value was 0.03; for GGCAGACCUCAACACAGCGUCGCAAAGUGGCUGUGGCUACACUGCC, 0.1. Then GGCAGACCUCAACACAGCGUGGCAAAGUGACUGUGGAUAGACUGCC, with 0.27. Then GGCAGACCUCAACACAGCAUGGGAAUGUGGCUGUGGCUAGACUGCU, with 0.01; and GGCAGACCUCAACACAGCGUGGCAAAGUGGUCGUGGCAAGACUGCC, with 0.04; and GGCAGACCUCAACACAGAGUGGCAAAGUGGCUGUGGCCAGACUGCC, with 0.02. With GGCAGACCUCAACACAUAGUGACAAAGUGUCUGUGGCUAGACUGCC, the self-cleavage came out at 0.02. Then GGCAGACCUCAACACAGCUUGGCAAAGUGGUUGUGGGUAGACUGCC, with 0.01; and GGCAGACCUCAACACAGCGUGGCAAAUUGGCUCUGGCUAGACUGCC, with 0.02; and GGCAGACCUCAACACAGAGUGGCAAAGUGGCUGUGGCUAGACAGAC, with 0.01. For GGCAGACCUCAACACAGCGUGGCAAAGUGUCUGUGGAUAGACUGCC the value was 0.1; for GGCAGACCUCAACACAACGUGGCAUACUGGCUGUAGCUAGACUGCC, 0.05; for GGCAGACCUCAACACAGCUUCGCAAAGUGGAUGUGGCUAGUCUGCC, 0.08.

As to GGCAGACCUCAACACAGCCUGGCAAAGUGGCUGUGGCAAGACUGCC, the self-cleavage was found to be 0.01. For GGCAGACCUCAACACAGCGUGGCAAAGUGGCUAUAGCUAGACUGCC the value was 0.5; for GGCAGACCUCAACACAGGGUGGCUAAGAGGCUGUGGCUAGACUGCC, 0.02; for GGCAGACCUCAACACAGCGUGGCAAAGUGGCUGUGGCUAUGCUGCC, 0.08. For GGCAGACCUCAACACAGGGUGCCAAAGUGGCUGUGGCUAGACUGCC the value was 0.02. For GGCAGACCUCAACACAGCGUGGAAAAGUGGCUGUGGCUAGACUUAC the value was 0.09.

For GGCAGACCUCAACACAGCGUGACAAACUGGCUGUGGCUACACUGCC, the self-cleavage is 0.04. Then GGCAGACCUCAACACAGCGUGGCAAAGUUGCUGUGGCUAGACUACC, with 0.37; and GGCAGACCUCAACACAACGUGGCAAAGUGGCUGUGGCUAAACUGCC, with 0.07. For GGCAGACCUCAACACAACGUGUCCAAGUGGCUGUGGCUAGACGGCC the value was 0.01; for GGCAGACCUCAACACAUGGUGGCCAAGUGGCUGUGGCUAGAAGGCC, 0.03.

GGCAGACCUCAACACAGCGUGGCAAAGUGACUUUGGCUAGACUGCC: the self-cleavage worked out at 0.06. As to GGCAGACCUCAACACAGCGUGGCAAAUUGGCUGUGGUUAGACUGCC, the self-cleavage came to 0.02.

As to GGCAGACCUCAACACAACGUGGCUAAGUGGCUGUGGCUAGACUGCC, the self-cleavage turned out to be 0.08. For GGCAGACCUCAACACACCGUGGCAAAGUGGCUGUGGCUAGACUGCU the value was 0.08. Then GGCAGACCACACCACAGCGUGGAAAAGUGGCUGUGGCUAGACUGCC, with 0.02; and GGCAGACCUCAACAUAGCGAGGCAUAGUGGCUGUGACUAGACUGCC, with 0.01; and GGCAGACCUCAACACAGCGUGGCAAAGUGGCUUUGGCUGGACUGCC, with 0.01. Turning to GGCAGACCUCAACACAGCGUGGCAAAGUUGCUAUGGCAAGACUACC, the self-cleavage came to 0.03. On to GGCAGACCUCAACACAUCGUGGCAAAGUGGCUGUCGCUAGACAGCC, for which the self-cleavage worked out at 0.27.

Turning to GGCAGACCUCAACACAGCGUGACAACGUGGCUGUGGCUAGACUGCC, the self-cleavage is 0.16. For GGCAGACCUCAACACAGCUUGGCAAAUUGGCUGUGGCUAGACAGCC the value was 0.01; for GGCAGACCUCAACACAGCUUGGCAAAGUGGCCGUGGCUAGACUGCC, 0.06; for GGCAGACCUCAACACAGCGUGGCAAAGUGGCUGUGCCUCGACUGCC, 0.09. Then GGCAGACCUCAACACAGCUAGCCAAAGUGGCUGUGGCUAAACUGCC, with 0.03; and GGCAGACCUCAACACACCGUGGCAAAGUGGCUGUGGCUAAACUGCC, with 0.1; and GGCAGACCUCAACACAGCGUGGAAAAGUGGCUGUGGUUCGACUGCU, with 0.05. Then GGCAGACCACAACACAGCGUGGCAAAGUGGCUGUGGGUAGACUGCC, with 0.04; and GGCAGACCUCAACACAGCGUGGCAAAAUUGCUGUGGCUAGACUGCC, with 0.08; and GGCAGACCUCAACACAGCGUGGCAAAGUGACUGUGGCUGGACUGCC, with 0.03. Consider GGCAGACCUCAACACAGCGUGGCAAAGUUGCUGUGGCUAUACUGCC, for which the self-cleavage stood at 0.32. For GGCAGACCUCAACACAGCGUGGCAAAGUGGCUGUGGCUAGAUUCAC the value was 0.02; for GGCAGACCUCAACACAUCGUGGGAAAGUGGCUGUGGCUAGACUCCC, 0.01.

For GGCAGACCUCAACACAGCGUGGUAAAGUGGCUGUGGCCAGACUGCC, the self-cleavage was found to be 0.17. For GGCAGACCUCAACACAUUCUGGCAAAGUGGCUGUGGAUAGACUACC the value was 0.02; for GGCAGACCUCAACACAGCGUGACAAAGUGGCUGUGGCUAGAGUGCC, 0.03; for GGCAGACCUCAACAUAGCGUGGCAAAGUUGCUGUGGCUAGACUACC, 0.07. Turning to GGCAGACCUCAACAUAGCGUGGCAAAGUGGCUGUUGCUAGACUGCC, the self-cleavage worked out at 0.1.

On to GGCAGACCUCAACACAUCGUGGCAAAGUGGCUGGGGCUAGACUGCC, for which the self-cleavage was found to be 0.07. Then GGCAGACCUCAACACAGCGUGGCAAAGUGGCUGUGUCUAGACUACC, with 0.07; and GGCAGACCUCAACACAGCGUGGCAAAGUUGCUGUUCCUAGACUGCC, with 0.06.
